Reference: paper PMC4336329 (PLoS ONE, 2015)
Screen size: about 310,000 compounds; about 2,200 (0.71%) showed an effect of 50% or more. The effect is printed as a negative number. The list shows a part of the results. Where a SMILES comes first, the peptide text is derived from it. The star is where a group is joined. Boc = CC(C)(C)OC(=O)*

Molecular target: human ether-à-go-go-related gene (hERG) potassium channel (human, UniProt Q12809)
Test: primary screen, population patch clamp on CHO cells stably expressing hERG

Sequence of human ether-à-go-go-related gene (hERG) potassium channel (Q12809 whole entry, looked up): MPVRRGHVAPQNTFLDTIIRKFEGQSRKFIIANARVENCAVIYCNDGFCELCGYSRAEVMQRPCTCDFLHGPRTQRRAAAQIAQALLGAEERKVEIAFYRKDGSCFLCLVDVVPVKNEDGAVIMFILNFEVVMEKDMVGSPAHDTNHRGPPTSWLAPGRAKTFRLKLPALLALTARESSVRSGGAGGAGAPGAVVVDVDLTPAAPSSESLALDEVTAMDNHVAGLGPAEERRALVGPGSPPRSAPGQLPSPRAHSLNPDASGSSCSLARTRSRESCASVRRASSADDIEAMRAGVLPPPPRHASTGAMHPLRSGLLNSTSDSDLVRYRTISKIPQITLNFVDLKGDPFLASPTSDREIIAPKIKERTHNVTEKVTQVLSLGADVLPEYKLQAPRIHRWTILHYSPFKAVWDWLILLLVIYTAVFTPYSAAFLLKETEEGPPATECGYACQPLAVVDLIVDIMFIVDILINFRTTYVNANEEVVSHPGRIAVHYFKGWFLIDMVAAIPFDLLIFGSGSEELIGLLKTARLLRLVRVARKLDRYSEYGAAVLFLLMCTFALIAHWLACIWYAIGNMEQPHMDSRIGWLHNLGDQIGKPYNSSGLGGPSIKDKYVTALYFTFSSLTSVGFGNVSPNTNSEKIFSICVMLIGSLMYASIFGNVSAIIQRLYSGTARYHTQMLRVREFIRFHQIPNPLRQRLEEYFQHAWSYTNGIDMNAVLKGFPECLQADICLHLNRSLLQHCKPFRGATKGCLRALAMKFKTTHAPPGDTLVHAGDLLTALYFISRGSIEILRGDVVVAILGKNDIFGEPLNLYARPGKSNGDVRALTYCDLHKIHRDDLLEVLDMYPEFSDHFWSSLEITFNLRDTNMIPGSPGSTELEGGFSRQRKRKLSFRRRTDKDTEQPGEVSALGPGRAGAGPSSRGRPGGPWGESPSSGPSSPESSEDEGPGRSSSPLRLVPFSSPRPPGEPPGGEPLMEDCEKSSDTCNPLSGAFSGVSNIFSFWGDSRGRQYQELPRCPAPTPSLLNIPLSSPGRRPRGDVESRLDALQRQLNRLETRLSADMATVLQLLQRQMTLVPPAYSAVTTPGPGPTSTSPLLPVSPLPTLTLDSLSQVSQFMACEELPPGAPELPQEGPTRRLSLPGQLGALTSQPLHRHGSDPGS

Compound | hERG current change (%, negative = inhibition) at 1uM [%]
O=C(O)CCC(=O)Nc1nc2ccccc2s1 | -1.9
Cc1ccc(C#N)c(SCc2ccccc2F)n1 | 5.63
CCOc1ccc(/C=C2\SC(=S)N(C(C(=O)O)c3ccccc3)C2=O)cc1OC (centres unmarked) | 9.55
CC1CCC(NC(=O)CSc2nnc(-c3cccnc3)o2)CC1 (centres unmarked) | 12.5
COc1cccc(NC(=S)Nc2ccc(F)cc2)c1 | 15.8
CCN(CC)S(=O)(=O)c1ccc(C(=O)Nc2ccc(Cc3ccncc3)cc2)cc1 | -14
CCCc1cc(=O)[nH]c(SCC(=O)N2N=C(c3ccc(Cl)cc3)CC2c2ccco2)n1 (centres unmarked) | 16.2
CC(=O)N1c2ccccc2Nc2ccccc21 | 8.98
Cc1occc1C(=O)NNC1=CC(=O)CC(C)(C)C1 | 13.9
O=C(NCC1CCCO1)C(c1cccnc1)N(C(=O)Cc1cccs1)c1cccnc1 (centres unmarked) | 4.83
CCOc1ccc(C(C)NC(=O)CN2C(=O)NC3(CCCCC3)C2=O)cc1OCC (centres unmarked) | 16.1
O=C(c1ccco1)N1CCN(C(=S)Nc2ccccc2Cl)CC1 | 4.93
O=C1C2CSCN2C(=O)CN1CCCN1CCN(C(c2ccccc2)c2ccccc2)CC1 (centres unmarked) | -10.5
COc1nonc1NC(=O)CSc1nc2ccccc2[nH]1 | 8.56
CCOC(=O)N1CCN(C(=O)/C(=C/c2cccc3ccccc23)NC(=O)c2ccc(OC)cc2)CC1 | -10.5
COc1cc(NC(=O)c2cc(OC)c(OC)c(OC)c2)c(OC)cc1NC(=O)CN1CCCCC1 | 8.57
O=C(Nc1ccc(N2CCCC2)c(Cl)c1)c1ccco1 | 11.3
CC(C)C1NC(=S)N(Cc2ccccc2)C1=O (centres unmarked) | 7.8
CN(Cc1ccccc1)C(=O)Cc1ccccc1 | 10
COc1ccc(S(=O)(=O)Nc2cccc(-n3cnnn3)c2)cc1OC | 14.7
CCOC(=O)c1c(-c2ccc(C)cc2)csc1NC(=O)c1cc2ccccc2oc1=O | 7.55
CC(=O)C1=NN(c2ccccc2)C(c2ccc3c(c2)OCO3)N1c1ccc(N2CCOCC2)cc1.CC(C)O (centres unmarked) | 13
CC(=O)NCCC(=O)Nc1cccc(S(=O)(=O)N(C)c2ccccc2)c1 | 14.2

Compound | hERG current change (%, negative = inhibition) at 1uM [%]
CCSCCOC(=O)C1=C(C)NC(=O)NC1c1cc(OC)ccc1OC (centres unmarked) | 2.48
Cc1sc(NC(=O)CN(Cc2ccc(F)cc2)C(=O)C(C)C)c(C(N)=O)c1C | 0.629
CC(C)(C)NC(=O)CSc1nnc(-c2c[nH]c3ccccc23)o1 | 8.87
COc1ccc2cc(C(c3nnnn3C3CCCC3)N3CCOCC3)c3nnnn3c2c1 (centres unmarked) | -1.98
CC1(C)C(c2cccs2)=[N+]([O-])C2(CCCCC/C2=N\NC(N)=S)N1O (centres unmarked) | -1.94
O=C1/C(=C\c2ccccn2)SC(=S)N1Nc1ncc(C(F)(F)F)cc1Cl | 4.83
CC(=O)C1C(=O)C=C(c2cccs2)CC1c1ccccc1 (centres unmarked) | 9.11
O=C(NCCCN1CCN(c2ccccc2F)CC1)C1CCCN(S(=O)(=O)c2cnc[nH]2)C1 (centres unmarked) | 14.3
CCCCCN1C=CC(=C2C(=O)c3ccccc3C2=O)C=C1 | 8.12
CC(=O)C1=C(c2ccccc2)NC(=S)NC1c1cc(Cl)c(OC(C)C)c(Cl)c1 (centres unmarked) | 12.3
O=C(c1ccccc1)c1nnc(-c2ccccc2F)o1 | -16
Cc1cc(=O)[nH]c(N2CCN(c3ccc(Cl)cc3)CC2)n1 | 8.83
Cc1cc(C)nc(CCNC(=O)CC2C(=O)NCCN2Cc2ccccc2)n1 (centres unmarked) | 23.9
COC1=C(Nc2ccc(OC)cc2)C(=O)c2ccccc2C1=O | 13
CCOC(=O)c1c(N)nn(C(=O)C(C)C)c1-c1ccc(OC)cc1 | 15
C=CCN1C=C2C(=O)C(C)(OC(=O)CCC(=O)OC)C(=O)C=C2C=C1C1CC1 (centres unmarked) | 14.1
Cn1c(SCC(=O)N2CCCc3ccccc32)nnc1-c1c[nH]c2ccccc12 | 0.712
CSCCC(NC(=O)OC(C)(C)C)C(=O)NC(CC(C)C)C(N)=O (stereo not drawn) (Boc-Met-Leu-NH2; configuration not given here) | 11.4
CCC(=O)Nc1cc(Cl)ccc1N1CCN(C(=O)CC)CC1 | -9.02
CN(C)S(=O)(=O)c1cccc(NC(=O)CNC2CCCCC2)c1.O=C(O)C(=O)O | 8.12
CN(CC(=O)Nc1ccc(Cl)c(C(F)(F)F)c1)C(=O)CCCc1nc2ccccc2c(=O)[nH]1 | 13.2
Cc1ccc(C(=O)O)cc1-c1ccc(/C=C2\SC(=O)N(CC(=O)Nc3ccccc3)C2=O)o1 | 14.6
COCCCNc1nc2nonc2nc1N1CCN2CCCC2C1 (centres unmarked) | 13.6

Compound | hERG current change (%, negative = inhibition) at 1uM [%]
CCOCCn1c(N2CCN(c3ccccc3)CC2)nc2c1c(=O)n(C)c(=O)n2C | 5.11
Cc1ccc(OCC(O)CN2CCN(Cc3ccc4c(c3)OCO4)CC2)c(C)c1.Cl (centres unmarked) | -18.6
CCN(CC)CCN(C(=O)c1ccc([N+](=O)[O-])cc1)c1nc2ccc(OC)cc2s1.Cl | 8.14
COCCn1c(SCC(=O)NCc2ccc3c(c2)OCO3)nc2ccccc2c1=O | -10.6
Cc1ccc2c(c1)N(CCC(=O)NC1CC1)C(=O)C(C)O2 (centres unmarked) | 13.5
Cc1ccc(NC(=O)CSc2nnc(N)s2)cc1S(=O)(=O)N1CCCCC1 | 12.7
Cc1ccc(C(=O)NNC(=O)C2CCN(Cc3ccccc3)CC2)cc1 | 7.73
COc1ccc(/C=N/Nc2nc(C)nc(N)n2)cc1 | -2.51
NC(=S)Nc1cccc2[nH]ccc12 | 8.1
CCOC(=O)CN1Cc2cccc(C(=O)O)c2C1=O | 8.67
C=C(C)COc1ccc(-c2n[nH]c(C)c2-c2ccc(OC)cc2)c(O)c1 | 11
CCCCCCCCNC(=O)/C(C#N)=C/c1ccc2c(c1)OCCO2 | 4.7
Cc1cccc(OCc2nnc(SCc3cc(=O)[nH]c4ccccc34)n2-c2ccccc2)c1 | 10.8
CCC(CC)c1nnc(NC(=O)C2CC(=O)N(c3ccc4c(c3)OCCO4)C2)s1 (centres unmarked) | 8.27
COC(=O)/C(=C(/F)Sc1cc(C)c(O)c(C)c1)C(F)(F)F | -16.5
O=C(O)C1=C[C@H](C2CC2)C[C@H](OCCCCO)O1 | 12.3
CC1=NN(Cc2ccccc2)C(=O)C1C(c1ccncc1)C(C#N)C#N (centres unmarked) | 10.3
Cc1csc(Sc2ccc(C(=O)OCC(=O)Nc3ccc(OC(F)(F)F)cc3)cc2[N+](=O)[O-])n1 | 7.43
NC(=O)C1CCCN(C(=O)Nc2cccc3ccccc23)C1 (centres unmarked) | 4.67
CCOc1c(OC)cccc1C1CC(=O)Nc2cc(OC)c(OC)cc21 (centres unmarked) | 9.23
Cl.Clc1ccc(-c2ccc(CNCc3ccccn3)o2)cc1 | -5.94
O=C(NC(=S)Nc1cccc(NC(=O)c2ccccc2)c1)c1cccc([N+](=O)[O-])c1 | 27.6
CCOC(=O)C1(Cc2ccc(OC)cc2)CCN(C(=O)[C@@H]2CCCN2C(C)=O)CC1 | 8.58

Compound | hERG current change (%, negative = inhibition) at 1uM [%]
O=C(CCC(=O)c1ccccc1)Nc1cccnc1 | 7.13
CCOc1ccc(S(=O)(=O)Nc2cc(Cl)ccc2O)cc1 | 9.44
CCC(NC(=O)CCCc1ccccc1)c1ccccc1 (centres unmarked) | 13.9
Cc1ccc(C2=NNC(C(O)C(O)C(O)C(C)O)S2)cc1 (centres unmarked) | 9.44
O=C(NC(=O)c1ccccc1)NC(=O)c1ccccc1 | 8.16
CCN1CCN(CCCNC(=O)C2CCN(c3nnc(-n4c(C)ccc4C)s3)CC2)CC1 | 1.52
Cc1sc(N/N=C/c2ccco2)nc1-c1ccccc1 | 4.38
Cc1cc(C)c(NC(=O)CSc2nc3ncc(Cl)cc3[nH]2)c(C)c1 | 11.6
Cc1ccnc(NS(=O)(=O)Cc2ccccc2)c1 | 10.7
CC(=O)c1cn(CCOc2cc(C)ccc2C)c2ccccc12 | 15
COc1ccc(C2OC(=O)CC2C(=O)NC2CCCC(C)C2C)cc1OC (centres unmarked) | 17.2
CCN(CC(=O)Nc1c(F)cccc1F)C(=O)c1ccc2ccccc2n1 | -1.85
Clc1ccc(Cn2cccn2)cn1 | 10.1
Cc1noc(C)c1COC(=O)CCCNC(=O)c1ccc(Cl)cc1 | 5.76
Cc1nnc(SCC(=O)NC(C)(C)C)n1CCc1ccccc1 | -2.61
CCOc1ccc2[nH]c(O)c(NC(C)=O)c2c1 | 5.98
COc1ccc(S(=O)(=O)N2CCCC2C(=O)NCC(=O)Nc2cccc(Cl)c2C)cc1 (centres unmarked) | 8.7
COc1ccc(-c2csc3ncnc(N4CCN(c5cccc(OC)c5)CC4)c23)cc1 | 12.8
COC(=O)[C@@H](NC(=O)/C=C/c1ccc(OC)cc1)C(C)C | 5.71
CC1(C)CSC(=NCCc2ccccc2)N1C(=O)c1ccc(C#N)cc1 | 8.17
